# Measured values published in PubChem BioAssay AID624418 (National Center for Advancing Translational Sciences (NCATS), 2012).
# Out of some 410,000 compounds screened, about 530 (0.13%) were called active. Inconclusive means that the source gave no clear call. Such entries were picked first, then a sample of the others. Calls come from the whole dose curve; as a rule, active = well fitted inhibition curve with a large enough effect; inconclusive = small, poorly fitted or top-dose-only effect, or another doubt; inactive = no such curve, though single readings can be large or run the other way. Potencies beside an inconclusive call are fits to weak or partial responses and may not hold up.
# Assay: qHTS of GLP-1 Receptor Inverse Agonists: Cytotox Screen
# Conditions: HEK293 cAMP-luciferase reporter cells, luminescence, 24 h; activity change, negative = inhibition: at 38.3 µM (top of the series) unless noted
# In short: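 Cells in DMEM/10% Nu serum/1% pen-strep, 1536-well format. Pre-incubated 12 h, dosed with 23 nL compound, incubated a further 24 h. Luciferase detection, 12 min at room temp, luminescence.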
# % is set by controls: 0 for no effect and ±100 for the full control effect; potency is the fitted concentration of half-maximal effect.
Compound,Potency,"activity change, negative = inhibition"
CCOC(=O)C1=C(C)N=c2s/c(=C\c3ccc(C(=O)O)cc3)c(=O)n2C1c1ccc(OC)cc1OC (stereo unspecified),"inconclusive: 3.55 µM [inhibitor, partial curve, poor fit]",–
CN(Cc1ccccc1)C(=O)c1cccc(NC(=O)C2CCCN(C(=O)OC(C)(C)C)C2)c1 (stereo unspecified),–,inactive: 5.17%
CCCCn1c(N)c(N(CCOC)C(=O)C2CCN(S(=O)(=O)c3ccc(Cl)cc3)CC2)c(=O)[nH]c1=O,–,inactive: -0.643%
CC(=O)c1c(C)nc(-c2ccccc2)n1O,"inconclusive: 11.2 µM [inhibitor, single point]",–
CCOc1ccc(NS(=O)(=O)c2ccc(C(=O)N(C)C)s2)cc1,–,inactive: -1.41%
C#CCOCCOCCOCCNc1nc(N2CCN(C(=O)[C@H](CC(N)=O)n3cc([C@@H](N)C(C)C)nn3)CC2)nc(N2CCN(C(=O)[C@H](CC(N)=O)n3cc([C@@H](N)C(C)C)nn3)CC2)n1,"inconclusive: 31.6 µM [inhibitor, partial curve, poor fit]",–
Cc1ccc(C(=O)Oc2ccc([N+](=O)[O-])cc2)cc1S(=O)(=O)N1CCCCCC1,"inconclusive: 15.8 µM [inhibitor, single point]",–
COc1cc(OC)cc(N2C(=O)N(Cc3ccc(C(C)(C)C)cc3)c3ccccc3S2(=O)=O)c1,–,inactive: -0.955%
COc1ccc(S(=O)(=O)N2CCC(C(=O)Nc3ccccc3)CC2)cc1OC,–,inactive: -13.7%
Cc1ccc(C(=O)c2c3ccc(C(F)(F)F)cc3[n+]([O-])n2CCCC(N)=O)cc1,"inconclusive: 31.6 µM [inhibitor, single point]",–
Cc1cc(C)c(OCCCNCc2ccccc2)c(Br)c1,"inconclusive: 28.2 µM [inhibitor, single point]",–
Cn1cc(S(=O)(=O)N2CCOCC2)cc1C(=O)O,–,inactive: 3.35%
CN(C)CCCN(C(=O)c1ccc(C(=O)c2ccccc2)cc1)c1nc2cc3c(cc2s1)OCCO3,"inconclusive: 12.6 µM [inhibitor, single point]",–
CCN(CC)CCN(Cc1cc2cc(C)c(C)cc2[nH]c1=O)C(=S)NCc1ccco1,"inconclusive: 22.4 µM [inhibitor, single point]",–
CC1CCc2c(sc(NC(=O)c3ccco3)c2C(=O)O)C1 (stereo unspecified),"inconclusive: 1.26 µM [inhibitor, partial curve, poor fit]",–
O=C1NC2CCCCC2C(=O)N1OS(=O)(=O)c1ccccc1 (stereo unspecified),"inconclusive: 12.6 µM [inhibitor, single point]",–
COc1ccccc1C(=O)NC(=S)N1CCc2ccccc21,"inconclusive: 12.6 µM [inhibitor, single point]",–
COc1cc(/C=C2/C(=O)NN(c3ccc(C)c(Cl)c3)C2=O)cc([N+](=O)[O-])c1O,"inconclusive: 11.2 µM [inhibitor, partial curve, poor fit]",–
COc1ccc(C(=O)NC(=S)N(Cc2ccccc2)Cc2ccccc2)cc1,"inconclusive: 15.8 µM [inhibitor, single point]",–
CC(C)(C)c1ccc(-n2ncc3c2CCCC3NC(=O)C2=NNC(=O)CC2)cc1 (stereo unspecified),"inconclusive: 3.16 µM [inhibitor, partial curve, poor fit]",–
CC(=O)c1ccc(NC(=O)C2CCC(CNS(=O)(=O)c3cccc4nsnc34)CC2)cc1 (stereo unspecified),–,inactive: 3.13%
Cc1ccccc1C(=O)NC(=S)N(CCO)Cc1ccccc1,–,inconclusive: -65.9% [inhibitor]

Compound,Potency,"activity change, negative = inhibition"
O=C(Nc1sc2c(c1C(=O)O)CCC2)c1ccccc1,"inconclusive: 2.82 µM [inhibitor, full curve]",–
C=CCN=C1NN=C(c2ccc3c(c2)OCCO3)CS1,"inconclusive: 28.2 µM [inhibitor, single point]",–
CC1(Cc2cc(Cl)ccc2C(F)(F)F)C(=O)Nc2ccc(OC(F)(F)F)cc21 (stereo unspecified),"inconclusive: 22.4 µM [inhibitor, single point]",–
CCOc1ccccc1NC(=O)c1ccc2c(c1)CCCN2S(C)(=O)=O,–,inactive: 0.24%
CCc1ccc(C(C(=O)NCc2ccc(OC)cc2)N(CCOC)C(=O)Cc2cccs2)cc1 (stereo unspecified),"inconclusive: 2.82 µM [inhibitor, full curve]",–
C=CCc1c(C)nc(C)nc1N/N=C/c1ccc([N+](=O)[O-])cc1,"inconclusive: 7.08 µM [inhibitor, partial curve, poor fit]",–
COc1ccc2[nH]cc(CCNC(=O)/C=C/[C@H]3O[C@@H](n4cc(C)c(=O)[nH]c4=O)C[C@@H]3O)c2c1,–,inactive: 6.71%
Cc1ccc(C)c(Cn2c(=O)n(CCCC(=O)NCc3ccco3)c(=O)c3sccc32)c1,"inconclusive: 12.6 µM [inhibitor, partial curve, poor fit]",–
COc1cccc(C2CC(=O)Nc3cc4c(cc32)CCC4)c1 (stereo unspecified),"inconclusive: 1.41 µM [inhibitor, full curve]",–
O=C(N/N=C/c1cccc(O)c1)c1ccc(NC(=O)c2cccc([N+](=O)[O-])c2)cc1,"inconclusive: 10 µM [inhibitor, partial curve, poor fit]",–
Cc1ccc(OCC(=O)Nc2cccc(C(=O)OCc3cc(=O)n4cc(C)sc4n3)c2)cc1,–,inactive: -6.66%
N/C(=N/OC(=O)c1cccc([N+](=O)[O-])c1)c1cccc([N+](=O)[O-])c1,–,inactive: -2.61% [at 7.66 µM]
CCOCN(C(=O)Cn1c(C)nc2ccccc21)c1c(C)cccc1CC,–,inactive: 10.5%
CCCCN(CCCC)CC(O)COc1ccccc1C(=O)Nc1ccccc1 (stereo unspecified),–,inconclusive: -39.1% [inhibitor]
CCCC(=O)N1CCC1(C)C(=O)NS(=O)(=O)c1cccs1 (stereo unspecified),–,inactive: 4.42%
Cc1cc(C)cc(N2C(=O)CC(Sc3nnnn3-c3ccccc3)C2=O)c1 (stereo unspecified),"inconclusive: 28.2 µM [inhibitor, single point]",–
COc1cccc(CNC(=O)[C@@H]2CCCN2C(=O)[C@@H]2CCCN2C(=O)OC(C)(C)C)c1,–,inactive: -3.39%
COC(=O)Sc1nc(N2CCOCC2)c2c(c1C#N)CC(C)(C)OC2,"inconclusive: 31.6 µM [inhibitor, single point]",–
COc1ccc(/C=C/C(=O)NCc2cn(C)nc2C)cc1COc1ccc(Cl)cc1Br,"inconclusive: 12.6 µM [inhibitor, single point]",–
COC(=O)c1cc(=O)n(Cc2cccs2)c(=Nc2ccc(F)cc2)s1,"inconclusive: 28.2 µM [inhibitor, single point]",–
CCOC(=O)CSC1=Nc2ccccc2C2=NC(CCC(=O)NCc3ccccc3)C(=O)N12 (stereo unspecified),–,inactive: -1.03%
COc1ccc(NC(=O)CS(=O)(=O)c2cn(CC(=O)N3CCOCC3)c3ccccc23)cc1OC,"inconclusive: 22.4 µM [inhibitor, partial curve, poor fit]",–

Compound,Potency,"activity change, negative = inhibition"
O=C1C(Cl)=C(N2CCN(c3ccccc3[N+](=O)[O-])CC2)C(=O)c2ccccc21,"inconclusive: 22.4 µM [inhibitor, single point]",–
Cc1cnc(NC(=O)CSc2c(Cl)cccc2Cl)s1,"inconclusive: 14.1 µM [inhibitor, single point]",–
CCOC(=O)C1(C)C=C(Nc2ccc(C)cc2)C(=O)N1c1ccccc1 (stereo unspecified),–,inactive: 0.592%
CCN(CC)CC(O)CNc1ccnc2c(Cl)ccc(Cl)c12 (stereo unspecified),"inconclusive: 10 µM [inhibitor, partial curve, poor fit]",–
CCN(CC)CCN(C(=O)c1ccc(C(=O)OC)cc1)c1nc2ccc(Cl)cc2s1,–,inactive: 1.6%
COc1cc(Nc2ccc(S(N)(=O)=O)cc2)c([N+](=O)[O-])nc1[N+](=O)[O-],–,inactive: -6.8%
COc1ccc2cc([C@H](C)C(=O)N(C)Cc3ccccc3N3CCCC3)ccc2c1,–,inactive: 3.14%
N#C/C(=C\Nc1ccc2c(c1)OCCO2)c1nc(-c2ccccc2)cs1,–,inactive: 3.83%
COc1ccc(CNC(=S)Nc2cccc(C)c2C)cc1,"inconclusive: 28.2 µM [inhibitor, single point]",–
CCc1ccc2occ(CC(=O)Nc3c(C(=O)Nc4ccc(Cl)cc4)oc4ccccc34)c2c1,"inconclusive: 11.2 µM [inhibitor, single point]",–
COc1ccc(NC(=O)/C(C#N)=C/c2ccc(C)o2)cc1,–,inactive: -9.19%
O=C(/C=C/c1cccc(Cl)c1)c1nc2ccccc2[nH]1,"inconclusive: 10 µM [inhibitor, partial curve]",–
CCCCCCOc1ccc(/C(C)=N/NC2=NCCN2)cc1,"inconclusive: 28.2 µM [inhibitor, single point]",–
COc1ccc(C/C(C)=N/NC(=S)Nc2ccc(C(C)C)cc2)cc1,"inconclusive: 10 µM [inhibitor, single point]",–
Brc1ccc2[nH]c3c(N4CCc5ccccc5C4)ncnc3c2c1,–,inactive: -28.5%
COc1ccc(S(=O)(=O)N2CCc3ccccc32)cc1C(=O)Nc1ccc(NC(C)=O)cc1,"inconclusive: 10 µM [inhibitor, partial curve, poor fit]",–
C/C(=N\Nc1nc2c(s1)CCCC2)c1ccc(Cl)cc1,"inconclusive: 28.2 µM [inhibitor, single point]",–
CNS(=O)(=O)c1cn(CC(=O)N2CCN(c3ccccc3OC)CC2)cc1S(=O)(=O)NC,–,inactive: 2.52%
Cc1ccccc1Nc1c(-c2ccccn2)nc2ccccn12,"inconclusive: 28.2 µM [inhibitor, single point]",–
C/C(=N\NC(N)=S)C1C2C3CC4C5CC(C42)C1C53 (stereo unspecified),"inconclusive: 4.47 µM [inhibitor, partial curve, poor fit]",–
O=C1CC(N(CCc2ccccc2)C(=S)Nc2ccccc2)C(=O)N1c1ccc(F)cc1 (stereo unspecified),"inconclusive: 12.6 µM [inhibitor, partial curve, poor fit]",–
COC(=O)c1c(C)[nH]c(C(=O)/C=C/c2cccc(Cl)c2)c1C,"inconclusive: 3.55 µM [inhibitor, full curve]",–
